Assay results: US9650358B2 (priority 2013, dated 2017)

system: H929 cells; assay: cells; conditions: Homo sapiens, NCI-H929, 24 h, read-out: H929 viability EC50

In order of rising EC50:
1. O=C(Nc1cc(-c2ccc3nnn(Cc4ccc(F)c(F)c4)c3c2)c(Cl)cn1)[C@@H]1CCCNC1 [Example 114, (3R)—N-{5-chloro-4-[1-(3,4-difluorobenzyl)-1H-benzotriazol-6-yl]pyridin-2-yl}piperidine-3-carboxamide]  310 nM
2. O=C(Nc1cc(-c2ccc3nnn(Cc4ccc(F)cc4)c3c2)c(Cl)cn1)[C@@H]1CCCNC1 [Example 113, (3R)—N-{5-chloro-4-[1-(4-fluorobenzyl)-1H-benzotriazol-6-yl]pyridin-2-yl}piperidine-3-carboxamide]  440 nM
3. O=C(CC1CCNCC1)Nc1cc(-c2ccc3ncn(Cc4cccc(F)c4)c3c2)c(Cl)cn1 [Example 129, N-{5-chloro-4-[1-(3-fluorobenzyl)-1H-benzimidazol-6-yl]pyridin-2-yl}-2-(piperidin-4-yl)acetamide]  970 nM
4. CS(=O)(=O)CCn1cnc2ccc(-c3cc(NC(=O)[C@@H]4CCCNC4)ncc3Cl)cc21 [Example 111, (3R)—N-(5-chloro-4-{1-[2-(methylsulfonyl)ethyl]-1H-benzimidazol-6-yl}pyridin-2-yl)piperidine-3-carboxamide]  1100 nM
5. COc1ccc(C2(CCNc3cc(-c4ccc5ncn(Cc6cccc(F)c6)c5c4)c(Cl)cn3)CCNC2)cc1 (stereo not shown) [Example 120, 5-chloro-4-[1-(3-fluorobenzyl)-1H-benzimidazol-6-yl]-N-{2-[3-(4-methoxyphenyl)pyrrolidin-3-yl]ethyl}pyridin-2-amine]  1300 nM
6. Cc1ccc(C2(CCNc3cc(-c4ccc5ncn(Cc6cccc(F)c6)c5c4)c(Cl)cn3)CCNCC2)cc1 [Example 117, 5-chloro-4-[1-(3-fluorobenzyl)-1H-benzimidazol-6-yl]-N-{2-[4-(4-methylphenyl)piperidin-4-yl]ethyl}pyridin-2-amine]  1500 nM
7. Fc1cccc(Cn2cnc3ccc(-c4cc(NCC5(F)CCNCC5)ncc4Cl)cc32)c1 [Example 119, 5-chloro-4-[1-(3-fluorobenzyl)-1H-benzimidazol-6-yl]-N-[(4-fluoropiperidin-4-yl)methyl]pyridin-2-amine]  1500 nM
8. NCC1CCCC(CNc2cc(-c3ccc4ncn(Cc5cccc(F)c5)c4c3)c(Cl)cn2)C1 (stereo not shown) [Example 128, N-{[3-(aminomethyl)cyclohexyl]methyl}-5-chloro-4-[1-(3-fluorobenzyl)-1H-benzimidazol-6-yl]pyridin-2-amine]  1600 nM
9. COc1ccc(C2(CCNc3cc(-c4ccc5ncn(Cc6cccc(F)c6)c5c4)c(Cl)cn3)CCNCC2)cc1 [Example 118, 5-chloro-4-[1-(3-fluorobenzyl)-1H-benzimidazol-6-yl]-N-{2-[4-(4-methoxyphenyl)piperidin-4-yl]ethyl}pyridin-2-amine]  1700 nM
10. Fc1cccc(Cn2cnc3ccc(-c4cc(NC5CCC56CCNC6)ncc4Cl)cc32)c1 (stereo not shown) [Example 121, N-{5-chloro-4-[1-(3-fluorobenzyl)-1H-benzimidazol-6-yl]pyridin-2-yl}-6-azaspiro[3.4]octan-1-amine]  2300 nM
11. Fc1cccc(Cn2cnc3ccc(-c4cc(N[C@@H]5CC[C@@]56CCCNC6)ncc4Cl)cc32)c1 [Example 127, (1R,4R)—N-{5-chloro-4-[1-(3-fluorobenzyl)-1H-benzimidazol-6-yl]pyridin-2-yl}-6-azaspiro[3.5]nonan-1-amine]  2800 nM
12. CS(=O)(=O)CCn1nnc2ccc(-c3cc(NC(=O)[C@@H]4CCCNC4)ncc3Cl)cc21 [Example 112, (3R)—N-(5-chloro-4-{1-[2-(methylsulfonyl)ethyl]-1H-benzotriazol-6-yl}pyridin-2-yl)piperidine-3-carboxamide]  3500 nM
13. Fc1cccc(Cn2cnc3ccc(-c4cc(NC5CC6CCCC(C5)N6)ncc4Cl)cc32)c1 (stereo not shown) [Example 124, N-{5-chloro-4-[1-(3-fluorobenzyl)-1H-benzimidazol-6-yl]pyridin-2-yl}-9-azabicyclo[3.3.1]nonan-3-amine]  4500 nM
